The list shows a part of the results.
Columns and labels:
HSkMC = human skeletal muscle cells; assay: cytotoxicity call (relative viability < 0.9); details: 10 µM
HepG2 = assay: cytotoxicity call (relative viability < 0.9); details: 10 µM
S. aureus RN4220 = assay: growth inhibition call (relative growth <= 0.2); details: 50 µM

C[C@H]1CN([C@@H](C)CO)C(=O)Cc2cc(NC(=O)Nc3ccc(F)cc3)ccc2O[C@@H]1CN(C)Cc1ccc(C(=O)Nc2ccccc2N)cc1
inactive: cytotoxicity call (HSkMC) | cytotoxicity call (HepG2) | growth inhibition call (S. aureus RN4220)

C[C@H]1CN([C@@H](C)CO)C(=O)c2cc(NC(=O)CCN3CCOCC3)ccc2O[C@H]1CN(C)S(=O)(=O)c1ccc(F)cc1
inactive: cytotoxicity call (HSkMC) | cytotoxicity call (HepG2) | growth inhibition call (S. aureus RN4220)

CC(C)NC(=O)Nc1ccc2c(c1)C(=O)N([C@H](C)CO)C[C@H](C)[C@@H](CN(C)C(=O)Nc1ccc3c(c1)OCO3)O2
inactive: cytotoxicity call (HSkMC) | cytotoxicity call (HepG2) | growth inhibition call (S. aureus RN4220)

C[C@@H]1CCCCO[C@@H](CN(C)C(=O)CCC(F)(F)F)[C@@H](C)CN([C@H](C)CO)C(=O)c2cc(NS(=O)(=O)c3cccs3)ccc2O1
inactive: cytotoxicity call (HSkMC) | cytotoxicity call (HepG2) | growth inhibition call (S. aureus RN4220)

COc1cccc(S(=O)(=O)Nc2ccc3c(c2)[C@@H]2C[C@H](CC(=O)NCCc4ccccc4)O[C@H](CO)[C@@H]2O3)c1
inactive: cytotoxicity call (HSkMC) | cytotoxicity call (HepG2) | growth inhibition call (S. aureus RN4220)

C[C@@H]1CN([C@@H](C)CO)S(=O)(=O)c2ccc(Br)cc2O[C@@H]1CN(C)C(=O)NC1CCCCC1
inactive: cytotoxicity call (HSkMC) | cytotoxicity call (HepG2) | growth inhibition call (S. aureus RN4220)

CC(C)CC#Cc1ccc2c(c1)O[C@@H](CN(C)CC1CCOCC1)[C@H](C)CN([C@H](C)CO)S2(=O)=O
inactive: cytotoxicity call (HSkMC) | cytotoxicity call (HepG2) | growth inhibition call (S. aureus RN4220)

Cc1noc(C)c1NC(=O)Nc1cccc2c1O[C@H](CN(C)C(=O)Nc1ccc(C(F)(F)F)cc1)[C@@H](C)CN([C@@H](C)CO)C2=O
inactive: cytotoxicity call (HSkMC) | cytotoxicity call (HepG2) | growth inhibition call (S. aureus RN4220)

C[C@H]1CN([C@@H](C)CO)C(=O)c2cc(NS(=O)(=O)c3cn(C)cn3)ccc2O[C@H]1CN(C)Cc1ccc(C(=O)Nc2ccccc2N)cc1
inactive: cytotoxicity call (HSkMC) | cytotoxicity call (HepG2) | growth inhibition call (S. aureus RN4220)

Source: the antibiotic and cytotoxicity screens of Wong et al. (2023)
